Inconclusive means that the source gave no clear call. Such entries were picked first, then a sample of the others. Potencies of inconclusive entries are left out as doubtful fits. Activity calls are given as the source filed them. The call rests on the fitted dose curve; in most records, active means well fitted curve in the direction sought with a large enough effect; inconclusive means small, poorly fitted or top-dose-only effect, or another doubt; inactive means no such curve, though single readings can be large; an effect the other way counts as inactive or inconclusive.
Legend:
[1] = BET inhibitor-based combinations targeting novel dependencies in MECOM-rearranged (r) AML: OCI-AML3 cell line (AID 2202232); conditions: CellTiter-Glo luminescence, 48 h; Potency: OCI-AML3 viability; viability (% of control): at 46 µM (top of the series); further: nearly all actives have a fitted effect of over 35% in size
Method in brief: (§1)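 Cells were plated at 500 per well and exposed to an 11-point dose series of each drug for 48 hr. Viability was measured by CellTiter-Glo luminescence, normalized to DMSO and empty-well controls, and summarized as AUC and per-cell-line Z-AUC.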

[2] = BET inhibitor-based combinations targeting novel dependencies in MECOM-rearranged (r) AML: MV-4-11 cell line (AID 2202233); conditions: MV-4-11 AML viability, CellTiter-Glo luminescence, 48 h; series mostly up to 46 µM; further: nearly all actives have a fitted effect of over 45% in size
Method in brief: (§2)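 Activity is given as area under the curve and as Z-AUC, mean-centred within each cell line. It comes from 11-point dose curves normalized to DMSO and empty wells. CellTiter-Glo luminescence was read after 48 hr drug exposure of 500 cells/well.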

[3] = BET inhibitor-based combinations targeting novel dependencies in MECOM-rearranged (r) AML: HNT-34 cell line (AID 2202234); further: nearly all actives have a fitted effect of over 35% in size
Method in brief: as §2

[4] = BET inhibitor-based combinations targeting novel dependencies in MECOM-rearranged (r) AML: AML-191 cell line (AID 2202236; further: nearly all actives have a fitted effect of over 35% in size)
Method in brief: as §1

[5] = BET inhibitor-based combinations targeting novel dependencies in MECOM-rearranged (r) AML: UCSD-AML1 cell line (AID 2202235); conditions: UCSD-AML1 AML cells viability, CellTiter-Glo, 48 h; viability (% of control): at 46 µM (top of the series); further: nearly all actives have a fitted effect of over 40% in size
Method in brief: as §2

[6] = BET inhibitor-based combinations targeting novel dependencies in MECOM-rearranged (r) AML: AML-194 cell line (AID 2202237; further: nearly all actives have a fitted effect of over 40% in size)
Method in brief: as §1
Potency means the concentration at half of the fitted maximal effect; tags describe the fitted curve by direction and shape.

Structure (SMILES)	Potency [1]	Potency [2]	Potency [3]	Potency [4]	Potency [5]	Potency [6]
C=Cc1cc(O)cc2nc(-c3ccc(O)c(F)c3)oc12	inconclusive [inhibitor, partial curve, poor fit]	inconclusive [inhibitor, single point]	inactive	inconclusive [inhibitor, single point]	–	–
O=C(O)CCNc1cc(N2CCc3ccccc3CC2)nc(-c2ccccn2)n1	inactive	inactive	inactive	inactive	–	–
O=C(NCc1ccccc1)[C@H](Cc1ccccc1)NC(=O)[C@H]1O[C@@H]1C(=O)NCCc1ccc(O)cc1	inconclusive [inhibitor, partial curve, poor fit]	active: 23.5 µM	inconclusive [inhibitor, single point]	inactive	–	–
CCCNC(=O)Nc1ccc(Oc2ncnc3cc(OC)c(OC)cc23)cc1Cl	inactive	inconclusive [inhibitor, full curve]	inactive	inactive	inactive	–
COc1cc2c(cc1OC)[C@@H]1C(=O)c3ccc4c(c3O[C@@H]1CO2)C=CC(C)(C)O4	active: 0.525 µM	active: 6.61 µM	active: 23.5 µM	–	inconclusive [inhibitor, partial curve]	active: 20.9 µM
CC1=C2[N-][C@H]([C@H](CC(N)=O)[C@@]2(C)CCC(=O)NC[C@@H](C)OP(=O)([O-])O[C@H]2[C@@H](O)[C@@H](n3cnc4cc(C)c(C)cc43)O[C@@H]2CO)[C@]2(C)N=C(C(C)=C3N=C(C=C4N=C1[C@@H](CCC(N)=O)C4(C)C)[C@@H](CCC(N)=O)[C@]3(C)CC(N)=O)[C@@H](CCC(N)=O)[C@]2(C)CC(N)=O.O.[Co+2]	inconclusive [inhibitor, partial curve]	inconclusive [inhibitor, full curve, poor fit]	inconclusive [inhibitor, partial curve, poor fit]	inconclusive [inhibitor, single point]	inconclusive [inhibitor, single point]	inconclusive [inhibitor, partial curve, poor fit]
Cn1cnc2c(F)c(Nc3ccc(Br)cc3Cl)c(C(=O)NOCCO)cc21	active: 0.0295 µM	inconclusive [inhibitor, partial curve]	inconclusive [inhibitor, partial curve]	inconclusive [inhibitor, full curve]	inconclusive [inhibitor, full curve]	inconclusive [inhibitor, full curve]
O=C1OC(COc2ccccc2[N+](=O)[O-])CC1Cc1ccccc1 (configuration not stated)	inconclusive [inhibitor, partial curve, poor fit]	inconclusive [inhibitor, partial curve, poor fit]	inactive	–	inactive	–
Cn1cnc2c(F)c(Nc3ccc(Br)cc3F)c(C(=O)NOCCO)cc21	inconclusive [inhibitor, full curve]	inconclusive [inhibitor, full curve, poor fit]	active: 0.0235 µM	inconclusive [inhibitor, full curve, poor fit]	inconclusive [inhibitor, full curve, poor fit]	inconclusive [inhibitor, full curve]
[2H]C([2H])([2H])C(O)([C@@H](C)/C=C/[C@@H](C)[C@H]1CC[C@H]2/C(=C/C=C3C[C@@H](O)C[C@H](O)C3)CCC[C@]12C)C([2H])([2H])[2H]	inconclusive [inhibitor, full curve, poor fit]	inconclusive [inhibitor, partial curve, poor fit]	inconclusive [inhibitor, single point]	–	inconclusive [inhibitor, single point]	inconclusive [inhibitor, partial curve]
CN1CCCN=C1/C=C/c1cccs1	inactive	inactive	inconclusive [inhibitor, full curve, poor fit]	inconclusive [inhibitor, single point]	–	–
O=c1[nH]c(-c2ccc(C(F)(F)F)cc2)nc2c1CSCC2	inconclusive [inhibitor, partial curve, poor fit]	inconclusive [inhibitor, partial curve, poor fit]	inactive	–	inactive	–
CCc1cccc2c3c([nH]c12)[C@@](CC)(CC(=O)O)OCC3	inactive	inactive	inactive	–	inactive	–
CCn1c(=O)c2c(nc(/C=C/c3ccc(OC)c(OC)c3)n2C)n(CC)c1=O	inconclusive [inhibitor, full curve, poor fit]	inconclusive [inhibitor, partial curve, poor fit]	inactive	–	inactive	inactive
CC/C(=C(/c1ccc(/C=C/C(=O)O)cc1)c1ccc2[nH]ncc2c1)c1ccc(F)cc1Cl	inconclusive [inhibitor, partial curve, poor fit]	inconclusive [inhibitor, single point]	inconclusive [inhibitor, partial curve]	inactive	–	–
NC(=S)N/N=C/c1ncccc1N	active: 5.25 µM	inconclusive [inhibitor, full curve]	active: 16.6 µM	active: 23.5 µM	–	–
CC(C)Oc1ccc(-c2nc(-c3cccc4c3CC[C@@H]4NCCO)no2)cc1C#N	inconclusive [inhibitor, partial curve]	inconclusive [inhibitor, partial curve, poor fit]	inconclusive [inhibitor, single point]	inconclusive [inhibitor, single point]	inconclusive [inhibitor, partial curve]	inconclusive [inhibitor, single point]
Cc1cccc(CC(=O)N2CCc3c2ccc(-c2cn(C)c4ncnc(N)c24)c3F)n1	inconclusive [inhibitor, full curve, poor fit]	active: 5.9 µM	active: 4.17 µM	inconclusive [inhibitor, full curve]	inconclusive [inhibitor, full curve]	inconclusive [inhibitor, full curve]
OCCOc1ccc(/C(=C(/CCCl)c2ccccc2)c2ccccc2)cc1	inconclusive [inhibitor, partial curve, poor fit]	inconclusive [inhibitor, partial curve, poor fit]	inconclusive [inhibitor, partial curve]	inconclusive [inhibitor, single point]	inactive	–
O=C(c1ccc(Nc2nc(C3CC3)cn3c(-c4cn[nH]c4)cnc23)c(F)c1)N1CCOCC1	inconclusive [inhibitor, partial curve]	active: 1.18 µM	active: 5.25 µM	active: 20.9 µM	inconclusive [inhibitor, partial curve, poor fit]	inconclusive [inhibitor, partial curve]
Cc1cc(NC(=O)Nc2ccc(N(C)C)cc2)c2cc(F)cc(F)c2n1	active: 8.11 µM	inconclusive [inhibitor, single point]	inconclusive [inhibitor, single point]	inconclusive [inhibitor, partial curve]	inconclusive [inhibitor, single point]	inconclusive [inhibitor, single point]
OC(Cn1cncn1)(Cn1cncn1)c1ccc(F)cc1F	inactive	inactive	inactive	inactive	–	–
C#CCC(Cc1cnc2nc(N)nc(N)c2n1)c1ccc(C(=O)N[C@@H](CCC(=O)O)C(=O)O)cc1 (some centres not stated)	inconclusive [inhibitor, full curve]	active: 0.0053 µM	inconclusive [inhibitor, full curve, poor fit]	inconclusive [inhibitor, full curve]	inconclusive [inhibitor, full curve]	inconclusive [inhibitor, full curve]
CO[C@H]1/C=C/O[C@@]2(C)Oc3c(C)c(O)c4c(O)c(c(/C=N/N5CCN(C)CC5)c(O)c4c3C2=O)NC(=O)/C(C)=C\C=C\[C@H](C)[C@H](O)[C@@H](C)[C@@H](O)[C@@H](C)[C@H](OC(C)=O)[C@@H]1C	inconclusive [inhibitor, partial curve, poor fit]	inconclusive [inhibitor, single point]	inconclusive [inhibitor, single point]	inactive	–	–
